Patent EP4702986A1, “POLYPEPTIDE AND USE THEREOF” (Biocells (Beijing) Biotech Co., Ltd., priority 2023, dated 2024)
Numbering of substitutions follows the chain as printed. For at least one compound, name, drawing or mass did not settle the structure. Numbered stars: 1 amine (or outer) side, 2 acyl side, 3 side chain; on linkers, the order of the positions; unused ones are H or OH. Bridge positions count the residues as written; N and C are the ends. Side chains are listed from the residue outwards. Peptide text beside a SMILES is read from it. * marks the point of attachment. C18 diacid = O=C(O)CCCCCCCCCCCCCCCCC(=O)*; γGlu = O=C(O)[C@H](CCC(=O)[*:2])N[*:1]; Fumaroyl = O=C(O)/C=C/C(=O)*; Suc = O=C(CCC(=O)[*:2])[*:1]; Lauroyl = CCCCCCCCCCCC(=O)*; AEEA = NCCOCCOCC(=O)O

Columns and labels:
Format in all cases: cell-based
mouse ETB receptor = molecular target: T1, mouse ETB receptor (Mus musculus, UniProt P48302); experiment: Determination of EC50s of polypeptides against mouse ETB receptor; details: Table 9, mouse ETB receptor; read-out: DETAR Agonist Activity EC50
T1 construct: expressed in transfected cells
T1 sequence (P48302 27-442): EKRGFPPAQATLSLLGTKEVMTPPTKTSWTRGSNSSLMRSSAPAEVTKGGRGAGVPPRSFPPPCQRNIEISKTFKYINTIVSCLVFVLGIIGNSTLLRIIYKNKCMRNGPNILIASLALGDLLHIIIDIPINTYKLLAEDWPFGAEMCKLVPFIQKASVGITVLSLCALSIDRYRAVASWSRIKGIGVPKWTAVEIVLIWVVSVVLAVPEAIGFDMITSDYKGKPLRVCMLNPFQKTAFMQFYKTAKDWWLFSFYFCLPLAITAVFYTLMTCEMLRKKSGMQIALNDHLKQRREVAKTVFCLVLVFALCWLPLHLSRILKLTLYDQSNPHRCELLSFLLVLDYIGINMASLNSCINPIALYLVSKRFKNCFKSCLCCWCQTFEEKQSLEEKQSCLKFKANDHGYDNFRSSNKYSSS

rat ETB receptor = molecular target: T2, rat ETB receptor (Rattus norvegicus, UniProt P21451); experiment: Determination of EC50s of polypeptides against rat ETB receptor; details: Table 8, rat ETB receptor; read-out: DETAR Agonist Activity EC50
T2 construct: expressed in transfected cells
T2 sequence (P21451 27-442): T1 sequence (P48302 27-442) with L12P, G52V, N67K, S71N, T133A, E139G, M216V, V265I, H330Q
Protocol: (§1) 293T-17 cells were seeded at a density of 650,000 cells per well in a 6-well plate and cultured overnight in an incubator at 37°C and 5% CO2. Afterward, the cells were transfected with an expression vector, PCDNA3.1-hETB which contained a human ETB receptor gene, at a plasmid concentration of 2.5 µg per well. The cells were further cultured for 48 hours, and green fluorescence expression was observed under a fluorescence microscope. The cells were then digested with trypsin and counted. The activity of compounds on the human ETB receptor was determined with the IP-One Gq kit from Cisbio Bioassays. The cells were suspended in Stim Buffer provided in the kit and the cell suspension was added to a 96-well detection plate at 7 µL cell suspension (containing 30,000 cells) per well. The polypeptides to be tested (prepared according to the Preparation Example of the invention) were diluted in Stim B to obtain a gradient of 11 concentration points. For each concentration point, the polypeptides to be tested were dissolved in Stim B to be at a concentration of 2×, and added at 7 µL to the test cells, while 7 µL of PBS solution was added to the cells in the negative control wells. The plate was sealed and incubated at 37°C for 1 hour in a cell culture incubator. Detection wells, positive control wells containing human endothelin ET1 (ET1: […] (C1-C15,C3-C11)), and PBS control wells were each added with 3 µL of IP1 d2 working solution and 3 µL of IP1 Tb cryptotate Antibody working solution. The plate was then sealed and incubated in the dark at room temperature (25°C±5°C) for 1 hour. The plate seal was removed, and the […] at 665 nm and 620 nm was measured with an ID5 microplate reader. The ratio of the acceptor emission signal to the donor emission signal, i.e., (signal at 665 nm/signal at 620 nm)×10^4, was calculated for each well. With F representing the average value of values of signal at 665 nm/signal at 620 nm for the test samples at various concentrations, a scatterplot was plotted, where the abscissa represented the F value, and the ordinate represented the logarithmic value of the peptide concentration. […] Another method was provided for fitting a curve where activation rate of the test polypeptides at each concentration relative to the positive control sample human endothelin ET1 was calculated first with the method in Example 1, and a scatterplot was plotted, where the abscissa represented the activation rate, and the ordinate represented the logarithmic value of the polypeptide concentration. […]
The process is the same as that in Example 3, except that the transfected plasmid was expression vector PCDNA3.1-RETB which contained a rat ETB receptor gene. EC50 values of the polypeptides against the rat ETB receptor were calculated (see Figures 11-13). […]

human ETB receptor = molecular target: T3, human ETB receptor (Homo sapiens, UniProt P24530); experiment: Determination of EC50 of polypeptides against human ETB receptor (IP-One Gq kit); details: 293T-17 cells transfected with PCDNA3.1-hETB; read-out: hETBR agonist activity EC50/nM
T3 construct: expressed in transfected cells; host or cells: 293T-17 cells, transient transfection
T3 sequence (P24530 27-442): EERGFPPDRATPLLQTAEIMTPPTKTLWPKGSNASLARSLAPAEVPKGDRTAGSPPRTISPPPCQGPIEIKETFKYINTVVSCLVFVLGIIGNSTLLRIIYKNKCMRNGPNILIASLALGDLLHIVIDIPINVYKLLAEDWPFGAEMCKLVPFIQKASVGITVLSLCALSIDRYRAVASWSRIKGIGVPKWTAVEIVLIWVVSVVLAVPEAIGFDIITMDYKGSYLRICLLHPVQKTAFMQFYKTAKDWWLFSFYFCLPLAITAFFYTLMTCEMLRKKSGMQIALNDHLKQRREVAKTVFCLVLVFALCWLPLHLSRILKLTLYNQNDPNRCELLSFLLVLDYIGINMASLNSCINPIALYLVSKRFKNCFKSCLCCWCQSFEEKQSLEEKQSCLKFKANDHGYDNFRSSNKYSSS
Protocol: 293T-17 cells were seeded at a density of 650,000 cells per well in a 6-well plate and cultured overnight in an incubator at 37°C and 5% CO2. Afterward, the cells were transfected with an expression vector, PCDNA3.1-hETB which contained a human ETB receptor gene, at a plasmid concentration of 2.5 µg per well. The cells were further cultured for 48 hours, and green fluorescence expression was observed under a fluorescence microscope. The cells were then digested with trypsin and counted. The activity of compounds on the human ETB receptor was determined with the IP-One Gq kit from Cisbio Bioassays. The cells were suspended in Stim Buffer provided in the kit and the cell suspension was added to a 96-well detection plate at 7 µL cell suspension (containing 30,000 cells) per well. The polypeptides to be tested (prepared according to the Preparation Example of the invention) were diluted in Stim B to obtain a gradient of 11 concentration points. For each concentration point, the polypeptides to be tested were dissolved in Stim B to be at a concentration of 2×, and added at 7 µL to the test cells, while 7 µL of PBS solution was added to the cells in the negative control wells. The plate was sealed and incubated at 37°C for 1 hour in a cell culture incubator. Detection wells, positive control wells containing human endothelin ET1 (ET1: […] (C1-C15,C3-C11)), and PBS control wells were each added with 3 µL of IP1 d2 working solution and 3 µL of IP1 Tb cryptotate Antibody working solution. The plate was then sealed and incubated in the dark at room temperature (25°C±5°C) for 1 hour. The plate seal was removed, and the […] at 665 nm and 620 nm was measured with an ID5 microplate reader. The ratio of the acceptor emission signal to the donor emission signal, i.e., (signal at 665 nm/signal at 620 nm)×10^4, was calculated for each well. With F representing the average value of values of signal at 665 nm/signal at 620 nm for the test samples at various concentrations, a scatterplot was plotted, where the abscissa represented the F value, and the ordinate represented the logarithmic value of the peptide concentration. A curve was fitted with an appropriate method to calculate EC50 values of the polypeptides against the human ETB receptor. Another method was provided for fitting a curve where activation rate of the test polypeptides at each concentration relative to the positive control sample human endothelin ET1 was calculated first with the method in Example 1, and a scatterplot was plotted, where the abscissa represented the activation rate, and the ordinate represented the logarithmic value of the polypeptide concentration. A curve was fitted with an appropriate method to calculate the EC50 values of the polypeptides against the human ETB receptor.

dog ETB receptor = molecular target: T4, dog ETB receptor (Canis lupus familiaris, UniProt P56497); experiment: Determination of EC50s of polypeptides against dog ETB receptor; details: Table 7, dog ETB receptor; read-out: DETAR Agonist Activity EC50
T4 construct: expressed in transfected cells
T4 sequence (P56497 27-442): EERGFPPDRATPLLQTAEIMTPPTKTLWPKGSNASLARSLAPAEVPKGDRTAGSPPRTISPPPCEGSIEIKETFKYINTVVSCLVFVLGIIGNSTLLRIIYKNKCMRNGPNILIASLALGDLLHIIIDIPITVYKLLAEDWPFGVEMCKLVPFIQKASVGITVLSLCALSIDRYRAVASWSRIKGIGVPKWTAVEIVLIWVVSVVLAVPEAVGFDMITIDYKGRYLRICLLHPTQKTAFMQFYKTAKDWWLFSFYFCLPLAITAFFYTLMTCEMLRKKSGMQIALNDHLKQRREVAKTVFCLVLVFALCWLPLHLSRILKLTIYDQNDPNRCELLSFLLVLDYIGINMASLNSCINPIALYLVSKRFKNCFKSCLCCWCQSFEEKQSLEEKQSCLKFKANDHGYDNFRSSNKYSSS
Protocol: as §1
The process is the same as that in Example 3, except that the transfected plasmid was expression vector PCDNA3.1-DETB which contained a dog ETB receptor gene. EC50 values of the polypeptide against the dog ETB receptor were calculated (see Figures 8-10). […]

Structure (SMILES)	EC50 (mouse ETB receptor)	EC50 (rat ETB receptor)	EC50 (human ETB receptor)	EC50 (dog ETB receptor)
CC[C@H](C)[C@H](NC(=O)[C@H](CC(=O)O)NC(=O)[C@H](CC(C)C)NC(=O)[C@H](Cc1c[nH]cn1)NC(=O)[C@H](C)NC(=O)[C@H](Cc1ccccc1)NC(=O)[C@H](Cc1ccc(O)cc1)NC(=O)[C@@H]1CSSC[C@H](NC(=O)[C@H](CCC(=O)O)NC(=O)[C@H](CC(=O)O)NC(=O)CCC(=O)O)C(=O)N[C@@H](CCC(=O)O)C(=O)N[C@@H](CCC(=O)O)C(=O)N1)C(=O)N[C@H](C(=O)N[C@@H](Cc1c[nH]c2ccccc12)C(=O)O)[C@@H](C)CC [BX-56] (Suc-DECEECYFAHLDIIW-OH; disulfide 3-6)	8.51 nM	12 nM	22.8 nM	8.04 nM
CCCCCCCCCCCC(=O)N[C@@H](CCC(=O)O)C(=O)NCCOCCOCC(=O)NCCCC[C@H](NC(=O)[C@H](Cc1c[nH]cn1)NC(=O)[C@H](C)NC(=O)[C@H](Cc1ccccc1)NC(=O)[C@H](Cc1ccc(O)cc1)NC(=O)[C@@H](NC(=O)[C@H](C)NC(=O)[C@H](CCC(=O)O)NC(=O)[C@H](CCC(=O)O)NC(=O)[C@H](CC(=O)O)NC(=O)/C=C/C(=O)O)C(C)C)C(=O)N[C@@H](CC(=O)O)C(=O)N[C@H](C(=O)N[C@H](C(=O)N[C@@H](Cc1c[nH]c2ccccc12)C(=O)O)[C@@H](C)CC)C(C)C [BX-238] (Fumaroyl-DEEAVYFAHK([AEEA-Glu-Lauroyl])DVIW-OH)	46.5 nM	9.88 nM	–	11.9 nM
CC[C@H](C)[C@H](NC(=O)[C@H](CC(=O)O)NC(=O)[C@H](CC(C)C)NC(=O)[C@H](Cc1c[nH]cn1)NC(=O)[C@H](C)NC(=O)[C@H](Cc1ccccc1)NC(=O)[C@H](Cc1ccc(O)cc1)NC(=O)[C@@H](NC(=O)[C@H](C)NC(=O)[C@H](CCC(=O)O)NC(=O)[C@H](CCC(=O)O)NC(=O)[C@H](CCCCNC(=O)COCCOCCNC(=O)COCCOCCNC(=O)CC[C@H](NC(=O)CCCCCCCCCCCCCCCCC(=O)O)C(=O)O)NC(=O)/C=C/C(=O)O)C(C)C)C(=O)N[C@H](C(=O)N[C@@H](Cc1c[nH]c2ccccc12)C(=O)O)[C@@H](C)CC [BX-253] (Fumaroyl-K([AEEA-AEEA-γGlu-C18 diacid])EEAVYFAHLDIIW-OH)	60.2 nM	187 nM	–	252 nM
CC[C@H](C)[C@H](NC(=O)[C@H](CC(=O)O)NC(=O)[C@H](CC(C)C)NC(=O)[C@H](Cc1c[nH]cn1)NC(=O)[C@H](C)NC(=O)[C@H](Cc1ccccc1)NC(=O)[C@H](Cc1ccc(O)cc1)NC(=O)[C@@H](NC(=O)[C@H](C)NC(=O)[C@H](CCC(=O)O)NC(=O)[C@H](CCCCNC(=O)COCCOCCNC(=O)COCCOCCNC(=O)CC[C@H](NC(=O)CCCCCCCCCCCCCCCCC(=O)O)C(=O)O)NC(=O)[C@H](CC(=O)O)NC(=O)/C=C/C(=O)O)C(C)C)C(=O)N[C@H](C(=O)N[C@@H](Cc1c[nH]c2ccccc12)C(=O)O)[C@@H](C)CC [BX-254] (Fumaroyl-DK([AEEA-AEEA-γGlu-C18 diacid])EAVYFAHLDIIW-OH)	69.5 nM	135 nM	–	95.5 nM
